# Assay results as given in ChEMBL document CHEMBL4888484, “Replenishing the malaria drug discovery pipeline: Screening and hit evaluation of the MMV Hit Generation Library 1 (HGL1) against asexual blood stage Plasmodium falciparum ,using a nano luciferase reporter read-out” (2022).
# The whole screen tested about 150,000 compounds, of which about 540 (0.36%) showed an effect of 50% or more. This is one part of the list.
# Test system: Plasmodium falciparum
# Test: Primary screen in NF54 nanoGlo assay, in single point, at 2uM, 72h; a lower Z score goes with more inhibition
# Format: functional, Erythrocyte
# Conditions: timepoint 72 hour
Compound,% Inhibition [%],Z score
Cc1ccc(NC(=O)NCc2ccccn2)nc1,36,-4.83
CN(C)c1ccc(C[C@@H](CO)Nc2ccncn2)cc1,3,-0.45
COc1c2c(cc3c1OCO3)CCN(C)C(C(=O)c1ccc(C)c(NC(=O)c3ccccc3)c1)=C2,1,-0.23
Cc1cc(CNC(=O)c2cc[nH]c2C)ccc1S(C)(=O)=O,35,-3.95
CC1(C)[C@@H]2CCC13CS(=O)(=O)N(CCOCC(F)(F)F)[C@H]3C2,-14,2.26
CCCc1cc(C(=O)N(Cc2ccco2)C[C@H]2CCCO2)no1,-1,0.15
CN(Cc1cnns1)[C@@H](C(=O)O)c1cccc(Br)c1,-6,1.18
COc1cccc(-c2ccc(N3CCN(C(=O)CN(Cc4ccc5c(c4)OCO5)C(=O)c4ccc(F)cc4)CC3)nn2)c1,-8,1.32
CC[C@H](C)N(CC#Cc1ccccc1)Cc1ccc(C#CCO)s1,-8,1.56
CC(NCC(O)Cn1c(-c2ccccc2)c(-c2ccccc2)c2ccc3ccccc3c21)c1ccccc1 (stereo unspecified),88,-10.69
CCN(CCOC)c1nc(N)nc(C(F)F)n1,3,-0.46
CCc1cnc(C)nc1N1CCN(Cc2cccc3nsnc23)CC1,-5,0.77
CCCn1cc(-c2ccnc(NCCCc3nnn[nH]3)n2)c(C)n1,5,-0.84
O=C(CC1CCCCC1)NCc1ccccn1,-4,0.54
Cn1c(=O)c2c(ncn2Cc2nnc(-c3cccs3)o2)n(C)c1=O,-6,1.09
Cc1n[nH]cc1CN(C)C(=O)c1n[nH]c(C)c1Cl,-14,1.26
CCNC(=O)[C@@H]1CC[C@](C)(C(=O)NCc2ccncc2C)C1(C)C,0,-0.05
Cn1ncc2c(NCC3(C(N)=O)CCOCC3)ccnc21,-4,0.42
c1csc([C@@H]2NCCOc3ccccc32)c1,-13,1.73
Cn1c(=O)c2c(ncn2Cc2noc(-c3cccs3)n2)n(C)c1=O,-18,3.47
CCCCCC(C)NC(=O)C1CCCN1 (stereo unspecified),1,-0.15
Cc1cnn(CCC(=O)N2CCC[C@H](n3cccn3)C2)c1,-17,2.32

Compound,% Inhibition [%],Z score
Cc1ccc2c(c1C)OC[C@@H]2NCc1cc(C(N)=O)cs1,-3,0.31
CCC(=O)N1CCCCC1C(=O)N1CCCC2(C1)OCc1ccccc12 (stereo unspecified),-2,0.41
CNc1nc2c(c(C(=O)N3CCCC3)n1)CN(C(=O)Nc1ccc(C)cc1)CC2,-1,0.21
O=C1C[C@H](C(=O)NCc2cccnc2N2CCCCCCC2)CN1,-20,1.91
O=C(Nc1nccc2sccc12)[C@@H]1CCCO1,8,-0.75
CO[C@@H]1C[C@@H](c2ncn[nH]2)N(C(=O)c2cn[nH]c2C)C1,-6,0.8
CCc1[nH]nc(-c2ccc(OC)cc2OC)c1NC(=O)Nc1ccc(F)cc1F,-13,1.17
Fc1ccc(-c2cccc(C3CCC3)c2)c2cc[nH]c12,-5,0.93
O=C(N[C@H]1C[C@@H]2C[C@H]1N(C(=O)c1ccccc1C(F)(F)F)C2)c1cccnc1,35,-3.96
Cc1cnccc1NCCn1ccnc1-c1nc2ccccc2n1C,-7,1.17
COCc1c(C(=O)N(C)Cc2ccco2)c(=O)cc(C)n1CC1CCCCC1,-7,0.8
CCC(C(=O)Nc1ccc2c(c1)CN(CCc1ccccc1)C(=O)C(C)O2)c1ccccc1 (stereo unspecified),-7,0.66
COCCOCCNC(=O)c1ncsc1Nc1ccccc1,1,-0.06
OCc1cc2n(n1)CCCN(Cc1nc(C(F)(F)F)no1)C2,-5,0.96
CC1(c2cc(NC(=O)N[C@H]3CCN(CC(F)F)C3)no2)CCCC1,-6,0.97
Cc1nnsc1CNC(=O)[C@]1(C)CCCO1,-7,1.3
c1ccc(Oc2ccc(-c3csc4nc5ccccc5n34)cc2)cc1,34,-0.48
O=C(N[C@H]1CCOC[C@H]1C1CCOCC1)c1ccccc1-c1ccccc1,-3,0.49
CC[C@@H](CO)NC(=O)COc1ccccc1,-3,0.43
COc1cccc(Cl)c1CC(=O)NC1(C#N)CCOCC1,5,-0.55
COc1ccc(-c2nnc(N3CCC[C@H](C(N)=O)C3)s2)cc1,6,-0.8
